Data taken from paper PMC4336329 (PLoS ONE, 2015).
The whole screen tested about 310,000 compounds, of which about 14,000 (4.5%) showed an effect of 50% or more. Effects have a minus sign here. The list shows a part of the results.

Target: human ether-à-go-go-related gene (hERG) potassium channel (human, UniProt Q12809)
Test: primary screen, population patch clamp on CHO cells stably expressing hERG
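Also: peak tail current of the secondary pulse compared with the same well before compound.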

Sequence of human ether-à-go-go-related gene (hERG) potassium channel (Q12809 whole entry, looked up): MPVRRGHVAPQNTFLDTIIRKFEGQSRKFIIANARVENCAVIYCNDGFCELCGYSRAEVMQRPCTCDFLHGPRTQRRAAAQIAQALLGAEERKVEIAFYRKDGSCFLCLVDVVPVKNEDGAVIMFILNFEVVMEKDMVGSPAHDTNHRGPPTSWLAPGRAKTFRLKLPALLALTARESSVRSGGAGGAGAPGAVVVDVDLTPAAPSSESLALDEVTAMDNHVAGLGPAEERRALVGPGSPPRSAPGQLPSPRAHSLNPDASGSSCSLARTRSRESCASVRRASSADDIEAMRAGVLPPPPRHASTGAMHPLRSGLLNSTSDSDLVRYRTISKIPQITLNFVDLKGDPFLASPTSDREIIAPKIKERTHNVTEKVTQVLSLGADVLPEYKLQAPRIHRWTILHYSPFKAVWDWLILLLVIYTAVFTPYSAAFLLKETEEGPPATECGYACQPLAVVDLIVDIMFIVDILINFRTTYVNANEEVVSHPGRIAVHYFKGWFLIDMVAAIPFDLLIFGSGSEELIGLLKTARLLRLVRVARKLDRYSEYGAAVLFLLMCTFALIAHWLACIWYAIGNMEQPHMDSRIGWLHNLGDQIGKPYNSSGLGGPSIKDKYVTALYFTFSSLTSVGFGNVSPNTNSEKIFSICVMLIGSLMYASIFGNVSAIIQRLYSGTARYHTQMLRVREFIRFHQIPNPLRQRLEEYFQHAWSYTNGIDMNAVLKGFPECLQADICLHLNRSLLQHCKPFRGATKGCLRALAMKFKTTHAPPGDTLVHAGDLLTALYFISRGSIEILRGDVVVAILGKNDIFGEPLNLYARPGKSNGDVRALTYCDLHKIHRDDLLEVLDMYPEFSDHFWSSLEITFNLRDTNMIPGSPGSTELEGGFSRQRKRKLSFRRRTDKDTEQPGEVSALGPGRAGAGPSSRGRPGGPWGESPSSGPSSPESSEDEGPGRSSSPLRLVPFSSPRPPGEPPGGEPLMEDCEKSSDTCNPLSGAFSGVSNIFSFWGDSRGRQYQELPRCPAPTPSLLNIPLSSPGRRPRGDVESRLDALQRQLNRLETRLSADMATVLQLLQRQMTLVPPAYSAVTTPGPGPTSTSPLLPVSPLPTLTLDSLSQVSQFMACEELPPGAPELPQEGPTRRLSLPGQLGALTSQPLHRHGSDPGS

Row | Compound | hERG current change (%, negative = inhibition) at 10uM [%]
1 | Brc1cc2c(cc1CN1CCN(c3ccccc3)CC1)OCCO2 | -8.97
2 | COc1cccc(OC)c1C(=O)Nc1sc2c(c1C(N)=O)CCN(Cc1ccccc1)C2.Cl | -14.2
3 | CCOC(=O)c1sc(NC(=O)c2ccco2)nc1-c1ccccc1 | 10.3
4 | Cc1onc(-c2ccccc2Cl)c1C(=O)Nc1nnc(C(C)C)s1 | -3.27
5 | CC(=O)Nc1ccc(C(=O)N/C(=C/c2ccccc2)C(=O)Nc2cccc(C(=O)O)c2)cc1 | 15.8
6 | COc1ccc(CNc2ccc(S(N)(=O)=O)cc2)c(OC)c1OC | 1.15
7 | Cc1cccc(N/C=C/C(=C(C#N)C#N)N(C)C)c1 | -24.5
8 | COc1ccc(-c2nnc(SCC(=O)NC(=O)NCc3ccccc3)o2)cc1 | 9.51
9 | O=C(NCc1ccco1)C(c1ccccc1)N(CC1CCCO1)C(=O)Cn1nnc2ccccc21 (stereo not drawn) | -12.4
10 | COC(=O)c1ccc(C(=O)OC)c(NC(=O)CSc2nnc(-c3ccccc3Cl)o2)c1 | -6.19
11 | CCOC(=O)c1ccc(C(=O)NNC(=O)C2CC=CCC2)cc1 (stereo not drawn) | 21.8
12 | N#Cc1ccccc1CSc1ncccc1C(=O)O | 23.5
13 | C=CCn1c(SCC(=O)N2CCCC2)nc2c([nH]c3ccccc32)c1=O | -29.6
14 | Cc1cnc(C(=O)Nc2cccc3ncccc23)cn1 | 9.53
15 | Cc1cc(C(=O)NN=C2C3CC4CC(C3)CC2C4)c2ccccc2n1 | 11
16 | CC1(C(=O)N/N=C/c2ccc3c(c2)OCO3)CC1(Br)Br (stereo not drawn) | -5.57
17 | C=C(C)C(=O)OCC(C)C | 19.4
18 | O=C1N[C@@H](Cc2ccccc2)C(=O)N2[C@H]1C[C@H]1c3ccccc3N(OOSc3ccccc3)[C@H]12 | -27.7
19 | C/C(=N\NC(=O)c1cccs1)c1c(O)cc(C)oc1=O | 23.1
20 | CC(=O)c1c(Nc2ccccc2)sc(C(=O)c2ccccc2)c1C | -10.7
21 | Cc1cccc(NC(=O)Cn2nnc(C(=O)NCc3cccs3)c2N)c1C | 20.5
22 | Cc1cc(C)cc(NS(=O)(=O)c2ccc(Oc3ncc(C(F)(F)F)cc3Cl)cc2)c1 | 24.8
23 | CCN(CC(=O)Nc1ccccc1C(F)(F)F)C(=O)CCOc1ccccc1C | 6.04
24 | CC1CCN(C(=O)c2nc[nH]c2C(=O)N2CCC(C)CC2)CC1 | 17.6
